PubChem BioAssay AID1259400 (National Center for Advancing Translational Sciences (NCATS), 2018)
Out of some 350,000 compounds screened, about 2,100 (0.6%) were called active. The shares of active, inactive and inconclusive entries below differ from those in the screen.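 Rule for the calls: active = activity change of -60% or lower, but not beyond a set lower limit; inconclusive = change between -60% and -40%, or beyond the set limit; inactive = change above -40%.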

Target: Relaxin receptor 1 (Homo sapiens) (UniProt Q9HBX9)
Assay: qHTS Assay for Antagonists of the Relaxin Receptor RXFP1
Details: HEK293-RXFP1, relaxin-stimulated cAMP HTRF, 30 min; at 57.5 µM; stronger effect = lower value
% is set by controls: 0 for no effect and ±100 for the full control effect.

Sequence of UniProt Q9HBX9 (Q9HBX9 whole entry, looked up): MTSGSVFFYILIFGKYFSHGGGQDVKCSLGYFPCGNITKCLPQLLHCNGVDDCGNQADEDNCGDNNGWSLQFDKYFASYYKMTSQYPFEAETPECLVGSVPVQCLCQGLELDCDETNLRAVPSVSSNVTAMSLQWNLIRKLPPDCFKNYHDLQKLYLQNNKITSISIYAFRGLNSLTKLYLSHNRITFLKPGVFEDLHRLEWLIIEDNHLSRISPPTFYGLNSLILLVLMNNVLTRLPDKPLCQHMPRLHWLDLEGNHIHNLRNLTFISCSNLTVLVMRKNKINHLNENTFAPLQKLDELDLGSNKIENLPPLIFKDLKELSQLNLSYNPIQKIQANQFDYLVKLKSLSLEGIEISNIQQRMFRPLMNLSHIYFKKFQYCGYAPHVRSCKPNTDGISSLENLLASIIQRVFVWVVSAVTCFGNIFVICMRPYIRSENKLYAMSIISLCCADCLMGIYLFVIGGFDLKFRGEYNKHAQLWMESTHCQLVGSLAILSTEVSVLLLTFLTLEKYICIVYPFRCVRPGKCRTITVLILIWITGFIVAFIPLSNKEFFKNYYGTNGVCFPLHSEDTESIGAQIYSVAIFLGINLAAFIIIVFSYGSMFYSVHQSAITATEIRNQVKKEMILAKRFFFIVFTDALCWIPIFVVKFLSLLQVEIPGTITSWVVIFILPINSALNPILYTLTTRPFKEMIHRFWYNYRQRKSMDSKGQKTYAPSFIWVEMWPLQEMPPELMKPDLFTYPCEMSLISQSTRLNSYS

| SMILES | activity change, negative = inhibition |
| --- | --- |
| Cc1nc(N)sc1-c1ccccc1 | inconclusive: -41.7% |
| COc1ccc(NC(=O)c2c(NCc3ccc(C)o3)sc3c2CCCCC3)c(OC)c1 | inconclusive: -52.7% |
| O=C(/C=C/c1ccccc1)NC(=S)NNS(=O)(=O)c1ccccc1 | inconclusive: -49.7% |
| Cc1ccc(C(=O)NCC(=O)Nc2ccc3c(c2)CCC3)cc1 | inconclusive: -50.8% |
| Cc1ccc(-c2nc(CS(=O)(=O)CC(=O)NCCCN(Cc3ccccc3)C(C)C)c(C)o2)cc1 | inconclusive: -43.8% |
| Fc1ccc(/C=N/N2CCN(Cc3ccccc3)CC2)cc1 | inconclusive: -43.2% |
| COc1cc(NC(=O)CN2C(=O)C(c3ccc(C)cc3)=NC23CCCCC3)cc(OC)c1 | inactive: -14.5% |
| O=C(c1cccs1)c1no[n+]([O-])c1C(=O)c1cccs1 | inconclusive: -51.6% |
| Cn1c(N/N=C/c2cc3ccccc3nc2Cl)nc2ccccc21 | inactive: 17.7% |
| CC(C)Cn1c(N2CCN(CC(=O)Nc3ccc(Cl)cc3)CC2)nc2ccccc21 | inactive: -4.45% |
| CCOC(=O)c1c(CN2CCNCC2)nc2ccc(Cl)cc2c1-c1ccccc1 | inconclusive: -57.4% |
| COCCN=c1scc(-c2ccco2)n1/N=C/c1ccc(O)c(O)c1O | active: -104% |
| O=C(CCc1nc2cccnc2n1Cc1cccs1)Nc1cccc(C(F)(F)F)c1 | inconclusive: -55.2% |
| C=CCSC1=C(C#N)C(c2ccccc2Cl)C(C(=O)c2cccs2)C(O)(C(F)(F)F)N1 (stereo unspecified) | inconclusive: -42.6% |
| COc1ccccc1C(=O)NC1CCN(C(=S)NCCc2ccccc2)CC1 | inconclusive: -44.7% |
| CCCCCCC(=O)NNC(=O)c1c(O)c2ccccc2n(CC)c1=O | inconclusive: -53.4% |
| O=C(Oc1ccc2c(c1)OCC2=O)c1ccc(Cl)cc1 | active: -60.2% |
| Brc1cccc(-c2cnn3c(-c4ccccc4)cc(-c4ccccc4)nc23)c1 | inactive: 4.94% |
| CCN(CC)CCCNC(=S)N1CCN(c2nc(-c3ccc(F)cc3)cs2)CC1 | active: -73.9% |

| SMILES | activity change, negative = inhibition |
| --- | --- |
| COc1cc(SC)ccc1C(=O)OCC(=O)NC1CCCCC1 | inactive: 5.77% |
| CC(C)c1ccc(NS(=O)(=O)c2ccc3nc(-c4ccccc4)[nH]c3c2)cc1 | active: -68.5% |
| FC(F)(F)c1nc2nncn2c2c1CCCCC2 | inactive: 11.2% |
| COc1cccc(C(=O)NC2CCN(C(=O)N3c4ccccc4Sc4ccccc43)CC2)c1 | inconclusive: -45.4% |
| Cc1cc(NC(=O)CSc2nnc3ccc(-c4ccc(F)cc4)nn23)no1 | inactive: -24% |
| NS(=O)(=O)c1ccc(CNC(=O)Cc2ccc(S(=O)(=O)N3CCOCC3)s2)cc1 | inconclusive: -43.7% |
| CCOC(=O)C(=O)N(Nc1ccc(C)cc1)c1ccc(C)cc1 | active: -68.3% |
| S=C1Nc2ccccc2Sc2ccc(Cl)cc21 | inconclusive: -49.4% |
| CC(C)(C)c1ccc(C(=O)NCC(c2ccco2)S(=O)(=O)c2ccc(F)cc2)cc1 (stereo unspecified) | inconclusive: -51.3% |
| CC(=O)c1ccc(NC(=O)CCC(=O)OCC(F)(F)C(F)F)cc1 | inactive: 10.6% |
| COc1ccc(-c2nc(NC(=O)c3[nH]c(C)c(C(C)=O)c3C)sc2C)cc1 | inconclusive: -42.2% |
| COc1ccc(C(O)(CCC(C)C)C(CN2CCOCC2)c2ccc(Cl)cc2)cc1 (stereo unspecified) | inconclusive: -53% |
| COc1ccc(CN2CCCC(C(=O)c3cccc(OC(C)C)c3)C2)cc1Cn1cccn1 (stereo unspecified) | inconclusive: -47.8% |
| COc1ccccc1C1c2ccc3ccccc3c2Oc2ncn(CCN(C)C)c(=N)c21 (stereo unspecified) | active: -78.5% |
| N#Cc1cc(Oc2cccc3cccnc23)c(-n2nnc3ccccc32)cc1C#N | inconclusive: -41.8% |
| Cc1ccc(NC(=O)CN2CCCN(Cc3cc(C)ccc3C)S2(=O)=O)c(Cl)c1 | inactive: -19.5% |
| N#CCC(=O)Nc1ccc(C(=O)OCC(=O)NC(=O)Nc2ccc3c(c2)OCCO3)cc1 | inactive: 0.373% |
| Cc1cc(SCC(=O)N/N=C/c2ccco2)nc2ccccc12 | inactive: -1.99% |
| O=C(Cc1c(F)c(F)c(F)c(F)c1F)Nc1nc(-c2ccccc2)cs1 | active: -65.3% |

| SMILES | activity change, negative = inhibition |
| --- | --- |
| COc1cc(/C=N/NC(=O)c2ccc(O)cc2)ccc1Oc1ccc([N+](=O)[O-])cn1 | inconclusive: -41.7% |
| O=C(c1cc2ccccc2o1)N(Cc1ccco1)Cc1cccs1 | inconclusive: -50.9% |
| Cc1cc(O)cc2c1C(c1ccc(F)cc1)CC1(CC(C)(C)NC(=S)N1)O2 (stereo unspecified) | inconclusive: -53.3% |
| Cc1cccc(NS(=O)(=O)c2ccc(C(=O)N3CCN(c4ccccc4O)CC3)cc2)c1C | inconclusive: -52.1% |
| Oc1ccc(/C=N/Nc2ccc(Cl)nn2)c(O)c1O | inactive: 23.9% |
| O=c1cc(N2CCCCC2)c(-c2ccccc2)nn1Cc1ccccc1 | active: -120% |
| CCN(CC)CCCCN1c2ccccc2Sc2ccccc21 | active: -63.5% |
| COc1ccc(NC(=O)CSc2ncn(-c3ccccc3)n2)cc1Cl | inactive: -9.93% |
| N#C/C(=C\c1ccc(N2CCOCC2)o1)c1ccccc1 | inactive: -8.33% |
| O=C(CCN1CCN(c2ccc([N+](=O)[O-])cc2)CC1)c1ccc(Cl)cc1 | inactive: -16.7% |
| Cc1cc2nc3ccc(=[N+](C)C)cc-3sc2cc1N | -197% |
| CCOC(=O)c1nc(C)nc(Sc2n[nH]c(-c3cc(Cl)cc(Cl)c3)n2)c1C | inconclusive: -56.9% |
| Cn1c(CCN2CCOCC2)nc2cc(NC(=O)COc3ccc([N+](=O)[O-])cc3)ccc21 | inconclusive: -54.6% |
| O=S(=O)(c1ccc(NC(=S)N2CCN(c3ccc(O)cc3)CC2)cc1)N1CCOCC1 | inactive: -9.62% |
| Cc1ccc(NC(=O)C(C)OC(=O)CCC2CCCCC2)cc1 (stereo unspecified) | inconclusive: -40.6% |
| O=C(COc1ccccc1)NCc1ccc2c(c1)CCN2C(=O)c1ccc(F)cc1 | inconclusive: -52.6% |
| CCc1ccc(C2CC(=O)c3c([nH]c(C(=O)OCC4CCCCC4)c3C)C2)cc1 (stereo unspecified) | inactive: 1.84% |
| Cc1cccc(CNC(=O)c2oc3c(c2C)-c2nn(Cc4ccccc4Cl)cc2CC3)c1 | active: -66.1% |
